According to PubChem BioAssay AID687022 (Broad Institute, 2013):
In all, about 1,000 compounds went through this assay and about 360 (36%) were called active.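 Rule for the calls: active = Fitted curve of melting temperature shift crosses the 1.0 threshold at or below the sample's highest valid tested concentration; inconclusive = Flat fit with activity 30 to 70, or invalid fit; inactive = Opposite direction, flat within 30, or no crossing.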 The list lacks most of the strong results.

Target: Fibroblast growth factor 22 (Homo sapiens) (UniProt Q9HCT0)
Sequence of UniProt Q9HCT0 (Q9HCT0 whole entry, looked up): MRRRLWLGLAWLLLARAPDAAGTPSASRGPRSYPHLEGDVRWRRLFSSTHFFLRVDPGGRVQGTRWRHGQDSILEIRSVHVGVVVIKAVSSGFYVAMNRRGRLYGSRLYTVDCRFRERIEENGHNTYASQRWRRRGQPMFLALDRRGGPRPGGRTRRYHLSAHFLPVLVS
Assay: binders of human FGF22 protein, dose response, FGF22 synaptogenesis inhibitor project, biophysical, thermal shift, cherry-pick (AID 687022); note: reference of the scale not given here
Conditions: recombinant FGF22 thermal shift, SYPRO orange melting; at 38 µM (top of the series) unless noted

SMILES | Tm shift activity
C[C@H]1CN([C@@H](C)CO)C(=O)c2cc(NC(=O)CCC(F)(F)F)ccc2O[C@H]1CN(C)CC1CC1 | inactive: -0.033% [at 10 µM]
Cc1ccc(S(=O)(=O)NCc2cccnc2)cc1C | inactive: -0.415%
C[C@H]1CN([C@@H](C)CO)C(=O)c2cc(NS(=O)(=O)c3ccc(Cl)cc3)ccc2O[C@@H]1CN(C)C(=O)Nc1ccc2c(c1)OCO2 | inactive: 0.029% [at 42 µM]
COCCN1CCN(Cc2nc(Cc3ccc(OC)c(OC)c3)no2)CC1 | inactive: -0.027%
CN1C(=O)c2cc(NC(=O)Cc3ccccc3)ccc2OC[C@@H]2O[C@H](CC(=O)O)CC[C@H]21 | inactive: -0.126%
COc1ccc(-c2cc(=O)oc3cc(OCC(=O)N[C@@H](Cc4c[nH]c5ccccc45)C(=O)O)ccc23)cc1 | inactive: 0.539%
CCOC(=O)C1CCN(C(=O)CNC(=O)c2nn(-c3ccc(OC)cc3OC)c(=O)c3ccccc23)CC1 | inactive: 0.053%
CCOC(=O)N1CCc2c(sc(NC(=O)C3COc4ccccc4O3)c2C(N)=O)C1 (centres undefined) | inactive: -0.029%
O=C(Nc1ccccc1Cl)N1[C@H](CO)[C@@H]2c3ccccc3NC[C@@H]21 | inactive: -0.115%
O=C(Nc1cccc(-c2cnc3ccccc3n2)c1)c1ccncc1 | inactive: 0.116%
C[C@H]1CN([C@@H](C)CO)C(=O)CCCn2cc(nn2)CO[C@@H]1CN(C)Cc1cccc(C(=O)O)c1 | inactive: -0.132%
C[C@H](CO)N1C[C@H](C)[C@@H](CN(C)S(=O)(=O)c2ccccc2)Oc2ccc(NS(=O)(=O)c3cn(C)cn3)cc2C1=O | inactive: -0.218%
COc1ccccc1N(C)S(=O)(=O)c1ccc(C(=O)Nc2ccc(C(N)=O)cc2)cc1 | inactive: 0.212%
CC(=O)NC(Cc1c[nH]c2ccccc12)C(=O)NCCc1ccccn1 (centres undefined) | inactive: 0.026%
O=[N+]([O-])c1ccc2oc(/C=C/c3ccc(O)cc3)nc2c1 | inactive: -0.179%
C[C@H]1CN([C@@H](C)CO)S(=O)(=O)c2ccc(C#Cc3ccccc3F)cc2O[C@@H]1CN(C)C(=O)Cc1cccnc1 | inactive: 0.102% [at 42 µM]
N#CCSc1n[nH]c2nc3c(c(=O)n12)C1(CCCCC1)Cc1ccccc1-3 | inactive: 0.19%
C[C@H](CO)N1C[C@H](C)[C@H](CN(C)S(=O)(=O)c2ccc(F)cc2)Oc2ccc(NC(=O)c3ccncc3)cc2C1=O | inactive: -0.057%
CN1CCN(C(=O)C[C@H]2C=C[C@H](NC(=O)c3ccc4c(c3)OCO4)[C@H](CO)O2)CC1 | inactive: 0.059% [at 42 µM]
